Biological target: glycine binding site of the NMDA receptor channel (Rattus norvegicus, UniProt P35439)
Assay: Receptor bond, glycine binding site of the NMDA receptor channel, (3H)-MDL 105.519 displacement
Conditions: rat cortex and hippocampus membrane homogenate; for inhibition at 10 µM: read-out: G1yB-bond, 10 μM, % inhibition
Experimental: Hawes and P. Towers, Journal of Pharmacology and Experimental Therapeutics, Vol. 279, p. 62, 1996].
For this purpose, cortex and hippocampus from freshly removed rats' brains were freshly prepared and homogenized with ice cooling in 5 mmol/l TRIS-acetate buffer, 0.32 mol/l saccharose pH 7.4 (10 ml/g fresh weight) with a Potter homogenizer (Braun/Melsungen 10 piston strokes at 500 rpm) and then centrifuged for 10 minutes at 1,000 g and 4° C. The first supernatant was collected and the sediment again homogenized with 5 mmol/1 TRIS-acetate buffer, 0.32 mol/l saccharose pH 7.4 (5 ml/g original fresh weight) with the Potter homogenizer (10 piston strokes at 500 rpm) with ice cooling and centrifuged for 10 minutes at 1,000 g and 4° C. The resultant supernatant was combined with the supernatant from the first centrifuging and centrifuged at 17,000 g for 20 minutes at 4° C. The supernatant after this centrifuging was discarded and the membrane sediment taken up with 5 mmol/l TRIS-acetate buffer pH 8.0 (20 ml/g original fresh weight) and homogenized with 10 piston strokes at 500 rpm. The membrane homogenate was then incubated for 1 hour at 4° C. and centrifuged for 30 minutes at 50,000 g and 4° C. The supernatant was discarded and the centrifuge tube with the membrane sediment sealed with parafilm and frozen for 24 hours at −20° C. The following day the membrane sediment was thawed and taken up with 5 mmol ice cold TRIS-acetate buffer, 0.1% saponin (w/v) pH 7.0 (10 ml/g original fresh weight) and homogenized with 10 piston strokes at 500 rpm and then centrifuged for 20 minutes at 50,000 g and 4° C. The resultant supernatant was discarded and the sediment taken up in a small volume with 5 mmol/l TRIS-acetate buffer pH 7.0 (about 2 ml/g original fresh weight) and again homogenized with 10 piston strokes at 500 rpm. After determining the protein content, the membrane homogenate was adjusted with 5 mmol/l TRIS-acetate buffer pH 7.0 to a protein concentration of 10 mg protein/ml and frozen in aliquots until testing.
For the receptor binding test aliquots were thawed, diluted 1:10 with 5 mmol/1 TRIS-acetate buffer pH 7.0, homogenized with ice cooling with 10 piston strokes at 500 rpm using the Potter homogenizer (10 piston strokes at 500 rpm) and centrifuged for 60 minutes at 55,000 g at 4° C. The supernatant was decanted and the membrane sediment adjusted with 50 mmol ice cold TRIS-acetate buffer pH 7.0 to a protein concentration of 1 mg/ml and again homogenized with 10 piston strokes at 500 rpm and held in suspension in the ice bath while stirring on a magnetic stirrer. This membrane homogenate was used in the receptor binding test.
In the binding test 50 mmol/1 TRIS-acetate buffer pH 7.0 was used as buffer and 1 nmol/l (^3H)-MDL 105.519 (B. M. Baron et al. 1996) was used as radioactive ligand. The non-specific bond content was determined in the presence of 1 mmol/l glycine.
The batches were incubated for 120 minutes at 4° C. and then harvested to determine the radioactive ligand bound to the membrane homogenate by filtration through glass fiber filter mats (GF/B). The radioactivity retained on the glass fibre filters was measured in the β-counter after adding scintillator.
Compounds according to the invention were tested in this assay; the measured results are recited in Table 6: […]

Row | SMILES | inhibition at 10 µM [%] | G1yB-bond, 10 μM, % inhibition [%]
1 | O=C(NC1CCCC1)C1=NOC2(CCN(C(=O)c3cccnc3Cl)CC2)C1 [Example 34, 8-(2-chloro-pyridine-3-carbonyl)-1-oxa-2,8-diaza-spiro[4,5]dec-2-ene-3-carboxylic acid cyclopentylamide] | 37 | 
2 | Cc1ccc(S(=O)(=O)NC(Cc2ccccc2)C(=O)N2CCC3(CC2)CC(C(=O)NCc2cccnc2)=NO3)cc1 (centres unmarked) [Example 36] |  | 38
3 | CC(C)CNC(=O)C1=NOC2(CCN(C(=O)c3ccc(F)cc3)CC2)C1 [Example 137, 8-(4-fluoro-benzoyl)-1-oxa-2,8-diaza-spiro[4,5]dec-2-ene-3-carboxylic acid isobutyl-amide] | 36 | 
4 | CC(=O)OC(C)(C)C(=O)N1CCC2(CC1)CC(C(=O)NCc1ccccc1)=NO2 [Example 174, Acetic acid 2-(3-benzylcarbamoyl-1-oxa-2,8-diaza-spiro[4,5]dec-2-ene-8-yl)-1,1-dimethyl-2-oxo-ethyl ester] | 41 | 
5 | CCSCCNC(=O)C1=NOC2(CCN(C(=O)c3c(-c4c(F)cccc4Cl)noc3C)CC2)C1 [Example 175, 8-[3-(2-chloro-6-fluorophenyl)-5-methyl-isoxazole-4-carbonyl]-1-oxa-2,8-diaza-spiro [4,5]dec-2-ene-3-carboxylic acid (2-ethylsulphanyl-ethyl)-amide] | 91 | 
6 | CCOc1ccccc1C(=O)N1CCC2(CC1)CC(C(=O)NCCOC(C)=O)=NO2 [Example 190, {[8-(2-ethoxy-benzoyl)-1-oxa-2,8-diaza-spiro[4,5]dec-2-ene-3-carbonyl]-amino]-ethyl acetate] | 89 | 
7 | O=C(NCCOc1ccccc1)C1=NOC2(CCN(S(=O)(=O)c3cccc(C(F)(F)F)c3)CC2)C1 [Example 202, 8-(3-trifluoromethyl-benzenesulphonyl)-1-oxa-2,8-diaza-spiro[4,5]dec-2-ene-3-carboxylic acid (2-phenoxy-ethyl)-amide] | 59 | 
8 | CCC(C(=O)N1CCC2(CC1)CC(C(=O)NCCC#N)=NO2)c1ccccc1 (centres unmarked) [Example 206, 8-(2-phenyl-butyryl)-1-oxa-2,8-diaza-spiro[4,5]dec-2-ene-3-carboxylic acid (2-cyano-ethyl)-amide] | 39 | 

Source: patent publication US8557796B2, “Substituted 1-oxa-2,8-diaza-spiro [4,5] dec-2-ene derivatives and related treatment methods” (Gruenenthal GmbH, priority 2001, dated 2013)
